The text below walks through data of PubChem BioAssay AID1346428 (National Center for Advancing Translational Sciences (NCATS), 2018).

In all, about 48,000 compounds went through this assay and about 1,200 (2.5%) were called active. Inconclusive results (about 2%) are left out.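 How the source made its calls: active means activation of at least 60% and not above a set upper limit (about 1 call in 100 departs from these limits); inconclusive means activation of 40% to 60%, or above that upper limit; inactive means activation under 40%.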 The list shows a part of the results.

Chain of UniProt O75388 (O75388 whole entry, looked up): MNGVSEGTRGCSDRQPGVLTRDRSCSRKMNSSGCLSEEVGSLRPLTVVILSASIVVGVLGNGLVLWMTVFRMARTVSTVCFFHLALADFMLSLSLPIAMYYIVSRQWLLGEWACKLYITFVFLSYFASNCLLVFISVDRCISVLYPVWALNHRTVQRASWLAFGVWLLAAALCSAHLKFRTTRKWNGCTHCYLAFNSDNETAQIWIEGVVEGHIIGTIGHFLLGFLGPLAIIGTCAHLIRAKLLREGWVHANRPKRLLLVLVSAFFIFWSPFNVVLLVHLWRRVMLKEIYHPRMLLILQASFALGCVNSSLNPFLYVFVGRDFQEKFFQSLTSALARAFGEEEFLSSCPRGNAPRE

The target of the assay is Probable G-protein coupled receptor 32 (Homo sapiens) (UniProt O75388). Kind of assay: qHTS for Agonists of Human Resolvin D1 Receptor DRV1. Further: 0% is about no effect. Particulars: CHO-K1 GPR32 beta-arrestin PathHunter luminescence, 90 min; at 76.9 µM; stronger effect = higher value; zero percent set by DMSO-only wells. An outline of the steps:
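Cells are plated overnight, treated with compounds in DMSO for 90 minutes at 37 °C, and developed with PathHunter detection reagent for 1 hour before luminescence is read; signal reflects beta-arrestin binding to GPR32 in engineered CHO-K1 cells.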
On the technique in general: Quantitative high-throughput screening tests each substance at several concentrations.
`CCc1ccccc1Nc1sc(C(=O)c2ccccc2)c(N)c1S(=O)(=O)c1ccccc1`: the activation was inactive: -41.5%.

For the compound `O=C(NO)c1ccccc1`, the activation was inactive: 21.4%.

As for `COC(=O)c1scc(-c2ccc(C)cc2)c1S(=O)(=O)N1CCN(c2cccc(Cl)c2)CC1`, the activation is inactive: -40%.

As for `O=C(O)/C=C/c1ccc(Cn2ccnc2)cc1`, the activation is inactive: -0.606%.

For `CCN(CCCNC(=O)Cn1ncc2c([nH]c3ccccc32)c1=O)c1cccc(C)c1`, the activation is inactive: -13.2%.

On to `CCc1ccccc1NC(=O)Cn1c(=O)n(-c2ccc(C)cc2)c(=O)c2cc(OC)c(OC)cc21`, for which the activation is inactive: -6.2%.

As to `Cn1c(=O)sc2cc(NS(=O)(=O)c3ccc(C(C)(C)C)cc3)ccc21`, the activation is inactive: -13.3%.

As for `Cc1ccc(S(=O)(=O)c2nc(-c3cccs3)oc2N2CCC(C)CC2)cc1`, the activation was inactive: -19.2%.

With `CC(=O)N1CCc2c(sc3c2c(=O)n(-c2ccccc2C)c(=O)n3CC(=O)Nc2ccccc2)C1`, the activation was inactive: -7.31%.

On to `Cc1c(C(=O)Nc2c(F)cccc2F)sc2ncn(Cc3ccccc3F)c(=O)c12`, for which the activation was inactive: -15.9%.

For `Fc1cccc(/C=N/N=C/c2cccc(F)c2)c1`, the activation was inactive: 2.71%.

For the compound `COc1ccc(C(=O)NCc2cn3ccc(C)cc3n2)cc1`, the activation was inactive: -4.8%.

Turning to `CCCCNC(=O)CSc1nc2cc3c(cc2c(=O)n1CCCC(=O)NCc1ccc(OC)cc1)OCO3`, the activation is inactive: -16.9%.

On to `CN(Cc1ccccc1)c1nc2c(S(=O)(=O)c3cccc(Cl)c3)nnn2c2ccsc12`, for which the activation was inactive: -13.9%.

As for `CC(C)CC(=O)NC1CC(=O)N(c2ccc3c(c2)OCCO3)C1` (centres undefined), the activation was inactive: -1.39%.

As for `O=S(=O)(NCCc1csc2nc(-c3ccc(Cl)cc3)nn12)c1cccs1`, the activation was inactive: -1.56%.

As for `Cc1ccc2c(c1)N(C(=O)N1CCC(C(=O)Nc3cccc(F)c3)CC1)CCO2`, the activation is inactive: 1.65%.

In the case of `CCC1CN(S(=O)(=O)c2cc(-c3cc(C)no3)ccc2OC)c2cc(Cl)ccc2O1` (centres undefined), the activation was inactive: -25.4%.

For the compound `COC(=O)c1ccccc1NC(=O)NCc1ccc2c(c1)CCN2C(=O)c1ccccc1`, the activation was inactive: -4.37%.

Take `CN1CCN(c2nc3cc(C(F)(F)F)ccc3n3cccc23)CC1`: the activation was inactive: 1.49%.

On to `O=C1CN(C(=O)c2ccc(S(=O)(=O)N3CCCC3)cc2)C(c2ccc(F)cc2)c2cc(Br)ccc2N1` (centres undefined), for which the activation is inactive: -14%.

As to `COc1ccccc1Nc1cc(C(=O)NCCCN(C)C2CCCCC2)c2ccccc2n1`, the activation is inactive: -15.6%.

On to `O=c1c2oc3ccccc3c2n(Cc2ccccc2Cl)c(=O)n1Cc1ccc2c(c1)OCO2`, for which the activation was inactive: -8.7%.

Take `CCc1ccccc1NC(=O)CN(c1cc(C(F)(F)F)ccc1Cl)S(=O)(=O)c1ccccc1`: the activation was inactive: -0.113%.

Consider `COc1cc(Nc2nc3c(S(=O)(=O)c4ccccc4)nnn3c3ccc(Cl)cc23)cc(OC)c1`, for which the activation was inactive: -8.28%.

`Cc1cc(C)cc(NC(=O)[C@H]2O[C@@H]3OC(C)(C)O[C@@H]3[C@H]3OC(C)(C)O[C@H]32)c1`: the activation is inactive: 7.63%.

`CCOC(=O)c1ccc2c(c1)N(Cc1cc(C)ccc1C)C(=O)c1ccccc1S2(=O)=O`: the activation was inactive: -6.29%.

As for `O=C(COc1ccc(Cl)cc1)OCc1cc(=O)n2nc(C3CCCCC3)sc2n1`, the activation is inactive: 11.7%.

Take `Cc1ccc2c(c1)N(C(=O)CCC(=O)NCc1ccccc1F)CC(C)O2` (centres undefined): the activation is inactive: -18.8%.

Consider `Cc1ccc(CCNC(=O)c2ccc3c(c2)N(Cc2cccc(F)c2)C(=O)c2ccccc2S3)cc1`, for which the activation was inactive: -11%.

For `COc1cccc2cc(C(=O)Nc3ccc(C)cc3)c(=O)oc12`, the activation is inactive: 0.602%.

`CCOC(=O)c1ccc(NC(=O)C2=C(C)C(=O)OC23CCN(C(C)C)CC3)cc1`: the activation is inactive: -2.74%.

For `Cc1ccc2c(=O)cc(C(=O)Nc3sc4c(c3C(=O)NCc3cccnc3)CCCC4)oc2c1`, the activation is inactive: 5.51%.

Take `O=C(NCC(c1cccnc1)N1CCc2ccccc21)c1ccc(Cl)cc1` (centres undefined): the activation is inactive: -27.1%.

Consider `Cc1ccc(-n2ncc(C(=O)NCCN3CCC(Cc4ccccc4)CC3)c2C2CCN(C(=O)OC(C)(C)C)CC2)cc1`, for which the activation was inactive: -24.7%.

In the case of `CCn1cc(S(=O)(=O)c2ccccc2)c(=O)c2cc(F)c(F)cc21`, the activation is inactive: -12%.

`Cc1ccc(CN(C(=O)COc2ccc(F)cc2)C2CCS(=O)(=O)C2)o1` (centres undefined): the activation is inactive: -11.9%.

`COc1ccc(-c2cc(C(F)(F)F)nc(SCC(=O)NC(C)c3ccccc3)n2)cc1` (centres undefined): the activation is active: 106%.

For `CCOc1ccc(N(CC)C(=O)Cn2cnc3sc(C)c(S(=O)(=O)N4CCN(c5ncccn5)CC4)c3c2=O)cc1`, the activation was inactive: -12.6%.

As for `CC(C)CCNC(=O)c1ccc2nc(Cc3ccccc3)oc2c1`, the activation is inactive: -13.5%.

For the compound `Cc1cc(NS(=O)(=O)c2ccc(NC(=O)COc3cc(C)c(Br)cc3C(C)C)cc2)no1`, the activation is active: 107%.

Regarding `Cc1ccc(NC(=O)C2CCCN(S(=O)(=O)c3cccs3)C2)c(C)c1` (centres undefined), the activation was inactive: -11.3%.

Regarding `COc1ccc(S(=O)(=O)N(CC(=O)Nc2ccc(Br)cc2)Cc2ccccc2)cc1`, the activation is inactive: 3.29%.

On to `CCCN1C(C(=O)c2ccccc2)=C(OC(=O)COc2ccc(C)cc2)c2ccccc2S1(=O)=O`, for which the activation is inactive: -65.3%.

For the compound `COC(=O)CN1C(C(=O)c2ccccc2)=C(OC(=O)c2ccccc2)c2ccccc2S1(=O)=O`, the activation is inactive: -1.58%.

With `Cc1ccc(NC(=O)CCCn2nc(C)c3c(C)n(-c4ccccc4)nc3c2=O)c(Cl)c1`, the activation is inactive: -12.4%.

For the compound `O=C(Nc1c2c(nn1-c1ccc(Cl)cc1)CS(=O)(=O)C2)c1ccc(Br)cc1`, the activation was inactive: 22.8%.

Turning to `CCCSCCCNC(=O)Cn1c(-c2cccs2)cc2ccccc21`, the activation is inactive: -8.43%.

Take `CCOC(=O)c1cc(NC(=O)c2ccc(F)cc2)c(=O)n2c1oc1ccc(Cl)cc12`: the activation was inactive: -5.97%.

For `Cc1cc(O)c(CN2CCN(c3ccccc3)CC2)c2oc(=O)cc(C)c12`, the activation is inactive: -13.1%.

Regarding `Cc1nc(-c2ccc(S(=O)(=O)NCc3ccccc3Cl)cc2)co1`, the activation was inactive: 46.5%.

`CCN1CCN(C(=O)Cn2ncc3c4ccccc4n(Cc4c(C)cc(C)cc4C)c3c2=O)CC1`: the activation was inactive: -16.8%.

Turning to `CCCn1c2ccccc2c2cnn(CC(=O)N3CCCC(C(=O)OCC)C3)c(=O)c21` (centres undefined), the activation is inactive: -12.1%.

As for `Cc1ccc(C(=O)Nc2cnc3ccccn3c2=O)cc1`, the activation is inactive: -8.4%.

For the compound `CCCCN(CCCC)C(=O)c1c[nH]c2ccc(S(=O)(=O)Nc3cccc(Cl)c3C)cc2c1=O`, the activation is inactive: -11.4%.

As to `CCC1=C(C)CN(C(=O)NCCc2ccc(S(=O)(=O)NC(=O)NC3CCC(C)CC3)cc2)C1=O` (centres undefined), the activation was inactive: 47.9%.

`COC(=O)CN1C(=O)CSc2ccc(S(=O)(=O)Nc3ccc(C)c(Cl)c3)cc21`: the activation was inactive: -6.99%.

For `O=C(Cc1ccc(-c2ccccc2)cc1)NCCS(=O)(=O)N1CCN(c2ccccc2F)CC1`, the activation is inactive: -25%.

Consider `COc1cccc(NC(=O)C2CCCN(c3ncnc4onc(C)c34)C2)c1` (centres undefined), for which the activation was inactive: 11.3%.

As to `O=C(Nc1ccccc1C(=O)N1CCCCC1)c1nsc2ccccc12`, the activation is inactive: -26.8%.

For the compound `CCc1ccc(NC(=O)c2cc(=O)c3ccc(C)c(C)c3o2)cc1`, the activation was inactive: -14.4%.

With `COc1ccc(NC(=O)CNC(=O)Cn2ccc3ccccc3c2=O)cc1OC`, the activation was inactive: -1.65%.

For the compound `CNC(=O)c1cnc2sc(N3CCC(C)CC3)nn2c1=O`, the activation is inactive: -8.74%.

Take `CCCCCOc1ccc(/C=C/C(=O)Nc2sc3c(c2C(=O)OCC)CCC3)cc1OC`: the activation is inactive: 12.1%.

For `O=C(Nc1ccc(F)c(F)c1)c1cc(S(=O)(=O)NC2CCCC2)ccc1F`, the activation was inactive: -12.3%.

With `CN1CCN(c2cc3c(nn2)Oc2ccccc2N3C)CC1`, the activation is inactive: 0.609%.

In the case of `Cc1cccc(N2CCN(CCCNc3ncnc4onc(-c5ccc(F)cc5)c34)CC2C)c1` (centres undefined), the activation was inactive: -4.28%.

With `COc1cccc(C(=O)Nc2ccc3nc(SCCOc4ccccc4)sc3c2)c1`, the activation was inactive: 4.56%.

Regarding `O=C(CCNS(=O)(=O)c1ccc2c(c1)CCN2C(=O)C1CC1)Nc1ccc(OC(F)(F)F)cc1`, the activation was inactive: 29.2%.

As to `CCC(C)NC(=O)Cn1ccc2cc(S(=O)(=O)N3CCCCCC3)ccc21` (centres undefined), the activation was inactive: 12.2%.

Consider `CCc1ccc2oc(-c3cc(NC(=O)c4cccs4)ccc3Cl)nc2c1`, for which the activation is inactive: 1.64%.

As to `CC(C)CCNc1nc2c(-c3ccccc3)nnn2c2ccccc12`, the activation is inactive: 10.3%.

As to `Oc1ccc(OCc2ccccc2)cc1`, the activation was inactive: -16.6%.

As for `Cc1ccc(C(=O)CSc2nc3cc(C(=O)NC4CCCC4)ccc3c(=O)n2CC2CCCO2)c(C)c1` (centres undefined), the activation was inactive: 4.24%.

For the compound `COc1cccc(NC(=O)c2oc3ccccc3c2NC(=O)c2ccccc2C)c1`, the activation was inactive: -23.4%.

On to `O=C(CC1N=C2c3ccccc3N=C(SCc3cccc(F)c3)N2C1=O)NCc1cccs1` (centres undefined), for which the activation is inactive: -14.7%.

Turning to `COc1cccc(-c2cc(C(=O)Nc3cnn(Cc4ccc(Cl)cc4Cl)c3)no2)c1`, the activation was inactive: -2.68%.

For `CCOc1ccc(CNC(=O)c2ccc(CSc3nc4ccncc4n3Cc3ccc(F)cc3)cc2)cc1`, the activation was inactive: -20.2%.

For `Cc1nn(-c2ccccc2)c2nc(C3CC3)cc(C(=O)Nc3cccc(F)c3)c12`, the activation was inactive: -3.77%.

For the compound `COC(=O)c1ccccc1NC(=O)CSc1n[nH]c(CC(C)C)n1`, the activation is inactive: -9.04%.

In the case of `Cc1ccc(CNC(=O)CCNS(=O)(=O)c2ccc3c(c2)CCCC(=O)N3)cc1`, the activation was inactive: 15.4%.

`CCCCN(CCCC)CCCNC(=O)c1ccc2nc(N3CCCCC3)sc2c1`: the activation was inactive: 9.82%.

Take `COc1ccc(OC)c(Nc2nc3ccccc3nc2-n2nc(C)cc2C)c1`: the activation was inactive: -30.2%.

Take `COc1ccc2c(c1)c1c(c(=O)n(-c3cc(Cl)ccc3C)c(=O)n1CC(=O)N1CCCC1)n2C`: the activation was inactive: -6.68%.
